Measured values from publication PMC4336329 (PLoS ONE, 2015).
The whole screen tested about 310,000 compounds, of which about 2,200 (0.71%) showed an effect of 50% or more. The effect is printed as a negative number. The list shows a part of the results.

Molecular target: human ether-à-go-go-related gene (hERG) potassium channel (human, UniProt Q12809)
Assay: primary screen, population patch clamp on CHO cells stably expressing hERG

Chain of human ether-à-go-go-related gene (hERG) potassium channel (Q12809 whole entry, looked up): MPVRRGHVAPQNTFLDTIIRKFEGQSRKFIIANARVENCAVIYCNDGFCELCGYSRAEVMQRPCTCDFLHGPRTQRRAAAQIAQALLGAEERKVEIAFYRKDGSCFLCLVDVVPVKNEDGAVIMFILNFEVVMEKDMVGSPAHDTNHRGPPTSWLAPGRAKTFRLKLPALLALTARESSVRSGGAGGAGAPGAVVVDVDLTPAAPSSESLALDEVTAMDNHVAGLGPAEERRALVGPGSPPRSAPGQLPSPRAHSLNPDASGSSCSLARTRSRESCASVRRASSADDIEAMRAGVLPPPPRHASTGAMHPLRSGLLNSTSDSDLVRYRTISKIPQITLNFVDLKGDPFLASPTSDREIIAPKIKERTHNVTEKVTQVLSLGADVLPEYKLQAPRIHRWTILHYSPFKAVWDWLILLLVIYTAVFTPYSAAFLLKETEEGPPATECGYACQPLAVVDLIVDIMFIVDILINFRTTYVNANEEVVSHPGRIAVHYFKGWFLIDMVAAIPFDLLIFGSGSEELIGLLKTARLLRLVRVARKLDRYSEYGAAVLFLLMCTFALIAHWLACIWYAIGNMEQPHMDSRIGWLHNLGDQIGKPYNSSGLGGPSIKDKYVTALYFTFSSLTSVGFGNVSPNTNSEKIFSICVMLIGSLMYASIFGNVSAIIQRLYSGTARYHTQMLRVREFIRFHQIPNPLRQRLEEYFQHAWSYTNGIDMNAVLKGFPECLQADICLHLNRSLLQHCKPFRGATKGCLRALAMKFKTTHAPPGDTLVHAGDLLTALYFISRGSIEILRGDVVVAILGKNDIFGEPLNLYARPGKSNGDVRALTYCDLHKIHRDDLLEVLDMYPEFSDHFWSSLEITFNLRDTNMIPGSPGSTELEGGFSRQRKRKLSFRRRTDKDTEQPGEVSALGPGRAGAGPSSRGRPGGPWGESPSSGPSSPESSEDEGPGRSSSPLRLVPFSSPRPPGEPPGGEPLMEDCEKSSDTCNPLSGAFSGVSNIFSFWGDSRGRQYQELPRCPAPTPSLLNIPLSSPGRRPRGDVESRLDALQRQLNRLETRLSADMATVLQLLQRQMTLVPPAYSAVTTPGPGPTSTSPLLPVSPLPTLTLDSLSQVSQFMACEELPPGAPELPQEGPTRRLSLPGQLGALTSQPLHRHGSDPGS

In order of rising “hERG current change (%, negative = inhibition) at 1uM” value:
1. CCOc1ccc(-c2cn3ccccc3n2)cc1[N+](=O)[O-]  -29.7%
2. COc1ccc(N2CCN(C(=O)COC(=O)CNC(=O)c3ccc(Cl)cc3Cl)CC2)cc1  -7.94%
3. Cc1ccc2c(c1)N(C(=O)CCC(=O)N1CCN(c3ccccn3)CC1)CC(C)O2 (centres unmarked)  -6.88%
4. CC1=NN(c2ccccc2)C(=O)/C1=C\N1CC(C)OC(C)C1 (centres unmarked)  -5.63%
5. CN(CCCNC(=O)COc1cc(=O)n(C)c2ccccc12)Cc1ccccc1  -3.31%
6. N#Cc1c(N)nc2c(c1-c1ccncc1)CCCCCC2  -1.65%
7. O=C(CSc1ccc(-c2cccnc2)nn1)c1ccc([N+](=O)[O-])cc1  -1.58%
8. Cc1nc2ccccn2c(=O)c1NC(=O)c1cccc2ccccc12  -1.13%
9. CC(C)NC(=S)N/N=C/c1ccc2c(c1)OCCO2  -0.153%
10. Clc1ccc(-c2ccc(C=Nc3ccc(N4CCOCC4)cc3)o2)cc1  -0.0857%
11. COc1cccc(C2CC(c3ccccc3)Nc3ncnn32)c1 (centres unmarked)  0.509%
12. COc1ccccc1N1CCN(C2CCCCC2NS(=O)(=O)c2ccccc2)CC1 (centres unmarked)  1.35%
13. CCCN(C(=O)c1cc(S(=O)(=O)N2CCCCC2)ccc1Cl)C1CCS(=O)(=O)C1 (centres unmarked)  2.11%
14. CCNC(=O)C(CCSC)NS(=O)(=O)c1ccc(C)cc1 (centres unmarked)  2.77%
15. CN(C)S(=O)(=O)c1cccc(NC(=O)COC(=O)c2ccc(Br)o2)c1  3.56%
16. COc1cc(CN2CCN(CC3CC3)CC2CCO)cc(OC)c1 (centres unmarked)  3.66%
17. O=Nc1c(O)[nH]c2ccc(Cl)cc12  4.46%
18. O=C(CC1NCCN(Cc2ccccc2)C1=O)Nc1ccccc1 (centres unmarked)  5.77%
19. CC(=O)N1[C@H](C)C=C[C@]1(Cc1ccccc1)C(=O)NCc1cc(F)cc(C(F)(F)F)c1  6.57%
20. CCOc1cccc2sc(N(CCN(C)C)C(=O)c3ccc(Br)s3)nc12.Cl  6.64%
21. c1ccc2c(c1)NC(c1ccncc1)n1c-2nc2ccccc21 (centres unmarked)  6.75%
22. CC1CCC(NC(=O)CCS(=O)(=O)c2ccc3c(c2)NC(=O)CS3)CC1 (centres unmarked)  7.17%
23. Cc1ccc(S(=O)(=O)NNC(=S)NC(=O)c2ccc([N+](=O)[O-])cc2)cc1  7.33%
24. c1cncc(-c2nc3ccccc3[nH]2)c1  7.52%
25. CCOC(=O)c1cnc(-n2nc(C)cc2C)nc1NC1CCCCC1  8.39%
26. CCCNC(=O)C1(O)c2cc(Br)ccc2NC(=O)N1c1ccc(Cl)cc1 (centres unmarked)  8.43%
27. CCCN(CCC)S(=O)(=O)c1ccc(C(=O)NCc2ccc3c(c2)OCO3)cc1  8.55%
28. CCOc1ccc(S(=O)(=O)N2CCC(C(=O)N3CCN(c4ccccc4)CC3)CC2)cc1  8.59%
29. COc1ccccc1Nc1ncnc2c1c(C)c(C)n2CCO  9.07%
30. Cc1ccc2c(c1)N(CC(=O)NCCCN1CCCC1)C(=O)CO2  9.09%
31. COc1ccc(C(=O)/C=C/c2ccccc2)c(O)c1  9.42%
32. C=CCN1C(=O)NC(=O)/C(=C/c2c(CCN(C)C(=O)c3ccccc3)cc3c(c2OC)OCO3)C1=O  9.51%
33. CCN1C(=O)C(C)S/C1=N\S(=O)(=O)c1ccc(F)cc1 (centres unmarked)  9.52%
34. N#C/C(C(=O)Oc1ccccc1)=C1\C=CC=CN1  9.65%
35. COc1ccc(NC(=O)CCC(=O)NCc2ccco2)c([N+](=O)[O-])c1  10%
36. COc1ccc(-n2nnnc2SCc2nc(N)nc(N3CCOCC3)n2)cc1  10.2%
37. COc1ccc(-c2cc(C(F)F)n3ncc(C(=O)Nc4cc(C)on4)c3n2)cc1  10.7%
38. Cn1c(=O)c(=O)n(C)c2cc(S(=O)(=O)CCC(=O)Nc3ccc(C(F)(F)F)cc3)ccc21  10.9%
39. COCC(C)NC(=O)Cc1ccc(Cl)cc1 (centres unmarked)  11.7%
40. ClCC1=Nc2ccccc2Cc2ccccc21  11.8%
41. CCC(CO)(C(=O)OC1CC2CCC(C1)N2C)c1ccccc1.Cl (centres unmarked)  12.3%
42. CNC(=S)N1CCN(c2nc(-c3ccc(Cl)cc3)cs2)CC1  12.3%
43. Cc1ccc(NS(=O)(=O)c2ccc3c(c2)NC(=O)CO3)cc1  12.7%
44. Cc1cc(OCc2cc(C(=O)N(C)C3CCOCC3)no2)cc(C)c1Cl  12.8%
45. Cc1ccc(C(=O)n2nc(-c3ccccc3)nc2NCc2ccco2)cc1  14%
46. CCc1nc(SCC(=O)Nc2cccc3ccccc23)[nH]c(=O)c1C  14.6%
47. O=[N+]([O-])c1cc(C=Nc2cccc3c(O)cccc23)ccc1Cl  14.8%
48. CC1(C)C(=O)OC(c2c(F)c(F)c(F)c(F)c2F)C2(CCCCC2)C1=O (centres unmarked)  15%
49. O=C(Nc1nccs1)C1CC=CCC1C(=O)OCC(F)(F)C(F)F (centres unmarked)  15.2%
50. Cc1cc(C(=O)CSc2nc(N)cc(=O)[nH]2)c(C)n1CCc1ccc(Cl)cc1  17.6%
51. Cc1ccc(C(C[N+](=O)[O-])n2nc(C)cc2C)cc1 (centres unmarked)  17.6%
52. CC(C)C[C@H](NC(=O)c1nc[nH]c1C(=O)NC(c1ccccc1)c1ccccc1)C(=O)OC(C)(C)C  17.7%
53. COc1cccc(-c2cc3nc4c(c(NCC(C)(C)CN(C)C)n3n2)CCCC4)c1  18.3%
54. COC(=O)c1sc2nc3c(cc2c1N)C(=O)CC(C)(C)C3  18.8%
55. COc1cc(NC(=O)c2cccs2)c(C(=O)OCC(=O)NC(C)c2ccccc2)cc1OC (centres unmarked)  21.6%
56. CCCOc1cccc(C2C(C(=O)c3ccc(C)o3)=C(O)C(=O)N2CCN2CCOCC2)c1 (centres unmarked)  26.3%
